Among all 420,000 compounds or so, about 64,000 (15%) were called active. The shares of active, inactive and inconclusive entries below differ from those in the screen. Calls follow the shape of the dose curve; as a rule, active = well fitted inhibition curve with a large enough effect; inconclusive = small, poorly fitted or top-dose-only effect; inactive = flat fitted curve, though single readings scatter. Potencies of inconclusive entries are left out as doubtful fits.
test: qHTS for Inhibitors of human tyrosyl-DNA phosphodiesterase 1 (TDP1): qHTS in cells in absence of CPT; settings: DT40 Tdp1-/- hTDP1 cells, no CPT, ATP luminescence, 48 h; activity change, negative = growth inhibition: at 46.2 µM (top of the series) unless noted; also: nearly all actives have a fitted effect of over 55% in size
Method in brief: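 Growth of hTDP1-complemented DT40 Tdp1-knockout cells is measured by ATP luminescence after at least 48 hr compound exposure at 37 °C, with DMSO substituting for the 20 nM CPT used in the parallel screen.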
% is scaled to controls: 0 for no effect and ±100 for the full control effect; potency is read from the fitted curve at half-maximal effect; tags tell the direction and shape of the fitted curve.

Compound | Potency | activity change, negative = growth inhibition
COc1ccc(NC(=O)N(C)C[C@H]2OCCCC[C@H](C)Oc3ccc(NC(=O)Nc4ccc5c(c4)OCO5)cc3C(=O)N([C@@H](C)CO)C[C@@H]2C)cc1 | inconclusive [inhibitor, single point] | –
O=C(Nc1ccc(N2CCCCC2)c(Cl)c1)c1ncn[nH]1 | inconclusive [inhibitor, single point] | –
Cc1cccc(Nc2nc(N)c([N+](=O)[O-])c(N3CC(C)CC(C)C3)n2)c1 (stereo unspecified) | active: 18.4 µM | –
CCOc1ccc(S(=O)(=O)N(CC(=O)N/N=C/c2cccs2)c2ccc(C)cc2)cc1 | inconclusive [inhibitor, single point] | –
O=C(CCC(=O)c1ccccc1)Nc1ccc(C(=O)O)cc1 | inconclusive [inhibitor, full curve, poor fit] | –
O=C(Nc1ccc(S(=O)(=O)N2CCOCC2)cc1)c1cc(-c2cc(Cl)ccc2O)n[nH]1 | active: 5.8 µM | –
Cc1nn(CC2CCCCC2)c(N)c1-c1ccccc1 | inconclusive [inhibitor, partial curve] | –
CCOc1ccc(NS(=O)(=O)c2ccc(C(=O)NCc3cccnc3)cc2)cc1 | inconclusive [inhibitor, partial curve, poor fit] | –
O=C(N/N=C/c1ccc(O)c(O)c1)C1CC1 | – | inactive: -6.67%
CC(Sc1n[nH]c(N)n1)C(=O)Nc1cccc2ccccc12 (stereo unspecified) | – | inactive: -24.4%
CC12CCC(C(=O)N(CSC(=S)N/N=C\c3ccccc3O)C1=O)C2(C)C (stereo unspecified) | active: 14.6 µM | –
O=C(CSc1nc2ccccc2c(=O)n1-c1ccc(F)c(Cl)c1)Nc1ccc2c(c1)CCC2 | – | inactive: -18.8%
Cc1ccc(OCCNC(=O)c2ccccc2SCC(=O)N2CCCC2)cc1 | inconclusive [inhibitor, partial curve, poor fit] | –
C=CCn1c(-c2cccc(OC)c2OC)n[nH]c1=S | inconclusive [inhibitor, partial curve] | –
O=C(CCN1CCOCC1)NNC(=O)/C(=C/c1ccccc1)NC(=O)c1ccccc1 | – | inactive: 4.33%
COCCCNC(=O)Nc1ccc(F)cc1F | – | inactive: -9.65%
Cc1ccc(Nc2nnc(-c3ccc4c(c3)OCO4)o2)c(C)c1 | inconclusive [inhibitor, single point] | –
CC(C)n1ncc2c(C(=O)NCC(=O)Nc3ccccc3Br)cc(C3CC3)nc21 | inconclusive [inhibitor, single point] | –
COc1ccc([N+](=O)[O-])cc1NS(=O)(=O)c1ccc(C)cc1 | inconclusive [inhibitor, single point] | –
CC(C)C(c1nnnn1Cc1ccc(F)cc1)N1CCN(C2CCCCC2)CC1 (stereo unspecified) | inconclusive [inhibitor, single point] | –
O=C(c1ccc(Cl)c(Cl)c1)N1CCCC1 | – | inactive: -8.49%
COc1ccc(-c2cc(C(=O)NCCN3CCOCC3)no2)cc1OC | – | inactive: -3.62%
CC(C)(C)c1ccc(S(=O)(=O)NCc2nc3cccnc3n2Cc2ccccc2Cl)cc1 | inconclusive [inhibitor, single point] | –
CCOc1ccc(OCCC(=O)Nc2cccc(S(=O)(=O)N3CCCC3)c2)cc1 | inconclusive [inhibitor, partial curve] | –

Compound | Potency | activity change, negative = growth inhibition
Cc1ccc(NC(=O)C(Cc2ccccc2)N2C(=O)C3C4CCC(C4)C3C2=O)cc1Cl (stereo unspecified) | – | inconclusive: -36.1% [inhibitor]
COc1ccc(C(=O)CC2OC(=O)c3c2ccc(OC)c3OC)cc1 (stereo unspecified) | – | inactive: -0.32%
CCS(=O)CC(=O)Nc1c(-c2ccccc2)oc2ccccc2c1=O (stereo unspecified) | – | inactive: -8.1%
CC(Sc1nnc(-c2cccnc2)n1N)C(=O)NCCC1=CCCCC1 (stereo unspecified) | – | inactive: -1.64%
CCOC(=O)c1[nH]c(C)c(C(=O)OCC(=O)N2CCCCC2C)c1C (stereo unspecified) | inconclusive [inhibitor, partial curve] | –
COc1cc(C=Cc2nnc3c4ccccc4cnn23)cc(OC)c1OC | active: 0.82 µM | –
CCC(=O)Nc1ccc2nc(SCc3ccc(C)cc3)sc2c1 | inconclusive [inhibitor, single point] | –
Cc1nc(N2CCCC2)c2c(C(=O)N3CCN(c4cccc(C)c4C)CC3)c(C)oc2n1 | inconclusive [inhibitor, single point] | –
COc1ccc(C2CC(c3cccc(OC)c3OC)n3nnnc3N2)cc1 (stereo unspecified) | inconclusive [inhibitor, single point] | –
COc1ccc(/C=C2\SC(=O)N(CC(=O)NCCC(C)C)C2=O)cc1OC | inconclusive [inhibitor, single point] | –
Cc1ccnc(NC(c2ccccc2O)c2oc(CO)cc(=O)c2O)c1 (stereo unspecified) | – | inactive: -12.4%
CN(C)c1ccc(C=NC(CO)C(O)c2ccc([N+](=O)[O-])cc2)cc1 (stereo unspecified) | – | inactive: -21.3%
CC(C)OC(=O)CC1C(=O)NCCN1C(=S)NC(=O)c1ccc(F)cc1 (stereo unspecified) | – | inconclusive: -32.6% [inhibitor]
COc1ccc(C(=O)c2[nH]c(N)c(C(=O)NCCc3c[nH]c4ccccc34)c2-c2ccc(OC)c(OC)c2)cc1 | active: 8.2 µM | –
O=C(CSc1nc(-c2ccccc2)[nH]c1-c1ccccc1)Nc1ccc2c(c1)OCCO2 | active: 9.2 µM | –
O=C(Nc1cccnc1)c1cc(-c2ccco2)on1 | inconclusive [inhibitor, partial curve] | –
COc1ccc(OCCCC(=O)Nc2cccc(C(C)=O)c2)cc1 | inconclusive [inhibitor, partial curve, poor fit] | –
COc1ccc(NS(=O)(=O)c2csc(C(=O)Nc3ccccc3)c2)cc1 | inconclusive [inhibitor, single point] | –
CCOC(=O)N1CCN(CC(O)COc2ccc(C(C)C)c(C)c2)CC1 (stereo unspecified) | inconclusive [inhibitor, partial curve] | –
CC(/C=C/c1ccco1)=N\NC(=O)CNc1cccc(C)c1 | – | inactive: 1.63%
Cc1ccc(Nc2cc(C)c(C#N)c3nc4ccccc4n23)cc1Cl | inconclusive [inhibitor, full curve] | –
Cc1nc(SCCC(=O)O)c2cc(-c3ccccc3)sc2n1 | inconclusive [inhibitor, partial curve, poor fit] | –
O=C1c2cccc3c(N4CCCCC4)ccc(c23)C(=O)N1c1ccccc1O | active: 20.6 µM | –
Cc1cccc(Sc2nc(-c3ccccc3)ncc2C(=O)O)c1 | – | inconclusive: -39.6% [inhibitor]

Compound | Potency | activity change, negative = growth inhibition
Cc1ccc(C(=O)N2CCN(c3ccc([N+](=O)[O-])c(N4CCOCC4)c3)CC2)cc1 | inconclusive [inhibitor, single point] | –
Cc1nn(-c2ccccc2)c(C)c1/C=N/Nc1nc2ccccc2[nH]1 | active: 23.1 µM | –
COc1ccccc1C(=O)Nc1ccc(S(=O)(=O)N2CCCCC2)cc1 | inconclusive [inhibitor, single point] | –
CCCSCCCNC(=O)c1ccc2c(c1)nc1n2CCCCC1 | inconclusive [inhibitor, single point] | –
O=C(CN1CCN(c2ncccn2)CC1)Nc1ccccc1-n1cccc1 | active: 12.6 µM | –
Cc1ccccc1Cn1nc(C)c(NC(=O)/C=C/c2cnn(C)c2C)c1C | inconclusive [inhibitor, single point] | –
CCCc1cc(C(=O)NC2CCCC2)no1 | – | inconclusive: -31.5% [inhibitor]
CCC(C)(C)NC(=O)C(c1ccccc1)N(Cc1cccs1)C(=O)Cn1nnc2ccccc21 (stereo unspecified) | inconclusive [inhibitor, single point] | –
COCCCNC(=S)Nc1ccc(C)cc1[N+](=O)[O-] | – | inactive: -1.04%
COc1ccc(S(=O)(=O)N2CCN(Cc3ccc4c(c3)OCO4)CC2)cc1OC | – | inactive: -29.3%
CN(CC(=O)Nc1ccccc1Cl)S(=O)(=O)c1ccc(C(=O)N2CCOCC2)s1 | inconclusive [inhibitor, partial curve] | –
Cc1ccc2nc(-c3cccnc3)cc(C(=O)Nc3ccccc3[N+](=O)[O-])c2c1 | inconclusive [inhibitor, partial curve, poor fit] | –
O=S(=O)(Nc1nc2ccccc2nc1NCc1ccco1)c1ccc(Cl)cc1 | inconclusive [inhibitor, single point] | –
CCCN(CCC)S(=O)(=O)c1ccc(Cl)c([N+](=O)[O-])c1 | active: 14.6 µM | –
CC(C)c1cc(-c2nc(-c3ccccc3)no2)n[nH]1 | inconclusive [inhibitor, single point] | –
O=C(O)C1CCCCC1C(=O)N1CC=C(c2ccccc2)CC1 (stereo unspecified) | inconclusive [inhibitor, single point] | –
Cc1ccccc1C(=O)Nc1cccc(NC(=S)NC(=O)c2cccs2)c1 | inconclusive [inhibitor, single point] | –
COC(=O)c1c(NC(=O)C(Cl)Cl)sc2c1C(C(=O)OC)CC2 (stereo unspecified) | inconclusive [inhibitor, partial curve, poor fit] | –
CC(C)(C)c1cc(OS(C)(=O)=O)ccc1O | inconclusive [inhibitor, single point] | –
O=c1o[nH]c(-c2ccccc2)c1-c1ccccc1 | – | inactive: -28.5%
CC(=O)Nc1c(Cl)cc2c(c1Cl)C(=O)c1ccccc1-2 | – | inactive: 0.836%
Cc1cc(C(=O)N[C@H](c2ccccc2)[C@@]2(C)C[C@@H]2[C@@H](C)C(=O)Nc2ccc3ccccc3c2)n(C)n1 | active: 23.1 µM | –
CN1OC[C@@H]2CN[C@H](c3ccc(-c4ccc(C#N)cc4)cc3)C[C@@H]21 | active: 23.1 µM | –

— PubChem BioAssay AID686978 (National Center for Advancing Translational Sciences (NCATS), 2013)
